The campaign covered roughly 310,000 compounds. About 14,000 (4.5%) showed an effect of 50% or more. The effect is printed as a negative number. The list shows a part of the results.
Target: human ether-à-go-go-related gene (hERG) potassium channel (human, UniProt Q12809)
Assay: primary screen, population patch clamp on CHO cells stably expressing hERG
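Further: peak tail current of the secondary pulse compared with the same well before compound.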

Chain of human ether-à-go-go-related gene (hERG) potassium channel (Q12809 whole entry, looked up): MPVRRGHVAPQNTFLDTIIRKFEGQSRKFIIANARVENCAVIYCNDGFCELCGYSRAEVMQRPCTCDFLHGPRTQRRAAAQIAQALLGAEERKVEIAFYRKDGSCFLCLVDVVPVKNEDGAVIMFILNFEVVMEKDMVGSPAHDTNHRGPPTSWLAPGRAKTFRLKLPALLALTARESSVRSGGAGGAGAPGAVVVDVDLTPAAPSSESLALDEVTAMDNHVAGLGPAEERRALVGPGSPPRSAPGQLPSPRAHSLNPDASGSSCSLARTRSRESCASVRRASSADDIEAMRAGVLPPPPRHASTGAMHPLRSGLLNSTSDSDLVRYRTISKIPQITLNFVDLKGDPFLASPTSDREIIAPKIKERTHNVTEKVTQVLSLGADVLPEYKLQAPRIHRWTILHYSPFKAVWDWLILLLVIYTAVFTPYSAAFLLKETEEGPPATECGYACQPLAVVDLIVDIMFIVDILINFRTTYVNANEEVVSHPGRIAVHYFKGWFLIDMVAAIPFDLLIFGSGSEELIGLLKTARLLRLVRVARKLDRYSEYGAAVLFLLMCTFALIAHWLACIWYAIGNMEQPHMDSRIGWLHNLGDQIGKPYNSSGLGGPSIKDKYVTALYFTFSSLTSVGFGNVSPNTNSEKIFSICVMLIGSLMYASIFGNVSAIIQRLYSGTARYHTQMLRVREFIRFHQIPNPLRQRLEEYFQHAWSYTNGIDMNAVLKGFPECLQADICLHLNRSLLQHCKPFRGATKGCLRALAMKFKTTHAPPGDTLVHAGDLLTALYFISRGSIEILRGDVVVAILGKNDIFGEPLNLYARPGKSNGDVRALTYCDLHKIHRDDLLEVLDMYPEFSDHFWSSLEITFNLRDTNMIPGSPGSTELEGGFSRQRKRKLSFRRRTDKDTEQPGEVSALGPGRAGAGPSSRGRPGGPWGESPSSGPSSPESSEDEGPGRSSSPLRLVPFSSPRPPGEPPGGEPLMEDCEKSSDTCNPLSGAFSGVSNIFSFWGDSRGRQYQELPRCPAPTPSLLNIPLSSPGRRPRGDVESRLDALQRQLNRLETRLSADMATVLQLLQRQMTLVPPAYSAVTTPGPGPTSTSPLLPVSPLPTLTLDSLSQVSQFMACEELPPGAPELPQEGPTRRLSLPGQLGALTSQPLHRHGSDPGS

Compound | hERG current change (%, negative = inhibition) at 10uM
CCn1c(SCC(=O)Nc2ccc(N(C)C)cc2)nnc1-c1cccc(C)c1 | -19.1%
Clc1ccc(CN2CCN(c3ncnc4scc(-c5cccs5)c34)CC2)cc1 | -41.3%
CCN(CC)c1ccc(N=Cc2c(O)n(CCc3ccc(OC)c(OC)c3)c(=O)[nH]c2=O)cc1 | 8.94%
C#Cc1cccc(NC(=O)c2ccc(Cl)cc2Cl)c1 | 7.03%
Cc1ccc(-c2nn3c(C)nnc3s2)cc1N | 0.932%
O=C(O)CC1(CC(=O)Nc2ccc(Cl)cc2C(=O)c2ccccc2)CCCC1 | 6.78%
O=C(N/N=C/c1c(O)ccc2ccccc12)c1cccc(C(F)(F)F)c1 | 12.1%
O=C(NCCc1ccccc1)C1CCN(S(=O)(=O)c2ccc(Br)s2)CC1 | -7.73%
CCCCCOc1ccc(C(=O)Nc2ccc(S(=O)(=O)Nc3cc(C)on3)cc2)cc1 | 21.2%
CCc1ccc(OCC(=O)NC(=S)Nc2ccc(S(=O)(=O)NC3CCCCC3)cc2)cc1 | 19.9%
O=[N+]([O-])c1ccc(Cl)c(S(=O)(=O)Nc2ccc(-c3ccc(N4CCOCC4)nn3)cc2)c1 | 13.7%
O=C(NCc1ccccc1Cl)C(=O)NCC1OCCCN1S(=O)(=O)c1cccs1 (stereo not drawn) | -4.52%
C[C@H](NC(=O)N1CCn2c1nc1ccccc12)C(=O)NC1CCCCC1 | -7.83%
CCCn1c(O)c(CN2CCCCC2)c(C)c(C#N)c1=O | 15.5%
CC(=O)c1cccc(NC(=O)c2cc(-c3ccncc3)nc3ccccc23)c1 | -31.3%
CC(CN1CCCC1)OC(=O)c1ccc(Cl)cc1Cl.Cl (stereo not drawn) | -33.7%
O=C(CC1C(=O)NCCN1C(=O)Nc1ccc(F)cc1F)Nc1ccc(F)cc1 (stereo not drawn) | 22.2%
Cc1ccc(N2C(=O)CC(n3ccnc3)C2=O)cc1C (stereo not drawn) | -3.27%
CC(C)(C)NC(=O)C(c1ccc(O)cc1)N(C(=O)CCC(=O)Nc1ccccn1)c1ccc(F)cc1 (stereo not drawn) | 8.1%
Clc1cc(Br)ccc1OCCN1CCOCC1.O=C(O)C(=O)O | -2.95%
CCOC(=O)CC1C(=O)NCCN1S(=O)(=O)c1ccc(F)cc1 (stereo not drawn) | 10.4%

Compound | hERG current change (%, negative = inhibition) at 10uM
O=C(O)CN1C(=O)/C(=C\c2cc([N+](=O)[O-])ccc2OCc2ccccc2Cl)SC1=S | 29.4%
COc1cc(C(=O)N/C(=C\c2cn(C)c3ccccc23)C(=O)NCCN2CCOCC2)cc(OC)c1OC | 12.9%
CCOC(=O)C1CCCN(c2cc(C)nc3cc(-c4ccc(F)cc4)nn23)C1 (stereo not drawn) | -44.2%
CC(=O)Nc1c(-c2ccc3ccccc3c2)nc2ccccn12 | -5.15%
COc1ccc(C(=O)Nc2ccc3c(c2)CCCN3C(=O)c2cccs2)c(OC)c1 | -5.24%
COc1ccc(-n2c(-c3ccccc3)nnc2-c2ccc(Cl)cc2)cc1 | 4.96%
COc1ccc(C(=O)NNC(=O)COc2ccc(Cl)cc2C)cc1S(=O)(=O)N1CCOCC1 | -77.1%
COc1ccc(-n2ncc3c(NCc4cccnc4)ncnc32)cc1 | -48.1%
O=C(CCn1nnc2ccccc21)N1CCC(O)(c2cccc(F)c2)CC1 | 4.12%
O=C(NC1=NCCS1)c1ccc(Cl)c(S(=O)(=O)N2CCOCC2)c1 | 25.6%
O=C(C1CCCN(S(=O)(=O)c2cccc3nsnc23)C1)N1CC=C(c2ccccc2)CC1 (stereo not drawn) | -34.2%
Cc1ccc(S(=O)(=O)N(C)C)cc1NC(=O)c1ccncc1 | 4.33%
CC1(O)c2ccccc2C(=O)N1CCc1ccccc1F (stereo not drawn) | -23.8%
OCc1cc(C(O)CNCCCCCCOCCCCc2ccccc2)ccc1O (stereo not drawn) | -57.9%
COc1cccc(OC)c1CN(C)C(=O)c1cnccc1C(F)(F)F | 7.47%
CCc1c(C)nc2ncnn2c1Nc1ccccc1C | -34.1%
CCN(CC)c1ccc(/C=N/NC(=O)c2ccoc2C)cc1 | -22.5%
CONc1nc(NC(C)(C)C)nc(OCC#N)n1 | 2.07%
Cc1ccc(S(=O)(=O)N2CCN(C(=O)COc3ccc(C)nc3[N+](=O)[O-])CC2)c(C)c1 | -61%
Cc1ccc(N(CC(=O)NC2CCCC2)C(=O)c2c(C)noc2C)cc1C | 8.81%
O=C(COc1ccc2ccccc2c1Br)N1CCOCC1 | -18.4%

Compound | hERG current change (%, negative = inhibition) at 10uM
Cc1ccc(NC(=O)c2cccc(C(F)(F)F)c2)cc1NC(=O)c1[nH]cnc1C(N)=O | -1.07%
CCOCCCNC(=O)C1CCN(S(=O)(=O)c2ccc3nc4c(c(C(=O)O)c3c2)CCCCC4)CC1 | 49.4%
CCN(c1cccc(C)c1)S(=O)(=O)c1cccc(C(=O)O)c1 | 15.8%
O=C(N1CCNCC1)N1CCOCC1 | 3.65%
CC(=O)NC1CC2CCCC(C1)N2C(=O)Nc1ccccc1 (stereo not drawn) | 9.57%
CCN=C1NN=C(c2c[nH]c3ccccc23)CS1 | -6.81%
CC(=O)Nc1ccccc1OCC(=O)c1ccc2c(c1)OCO2 | -6.76%
O=C(O)C(=O)O.OC(CNC1CCCc2ccccc21)COc1ccc2ccccc2c1 (stereo not drawn) | -72.3%
CCOC(=O)c1nc(NCc2ccccc2)sc1C | 10.1%
CN(C)C(=O)c1ccc(NC(=O)COC(=O)/C=C/c2cccs2)cc1 | 10.3%
Cc1cc(N2CCN(C)CC2)nc2ccc(NC(=O)CCC(=O)NCc3ccco3)cc12 | 7.05%
Cc1nc2ccccc2c(=O)n1NC(=O)/C=C/c1ccc(Br)cc1 | -1.3%
COc1ccc(NC(=O)c2cc3c([nH]c4ccccc43)c(C)n2)cc1 | 19.3%
Cc1nn(C)c(C)c1CNC(=O)c1cnn2c1NC(c1ccccc1)CC2C(F)(F)F (stereo not drawn) | -8.44%
CC(C)(C)OC(=O)N[C@@H](Cc1ccccc1)C(=O)NCC1CCC(C(=O)N[C@@H](CCC(N)=O)C(=O)O)CC1 (stereo partly drawn) | 16.6%
COc1cc(S(=O)(=O)N2CCOCC2)ccc1NC(=O)COC(=O)c1ccccn1 | -3.21%
CCCOc1ccc(-c2nnn(CC(=O)OCC)n2)cc1 | 3.17%
COc1cccc(/C=N\NC(=O)c2ccc(Cn3cc(Br)c([N+](=O)[O-])n3)o2)c1O | 6.21%
Cc1c(Cl)c([N+](=O)[O-])nn1Cc1ccc(C(=O)N/N=C\c2ccccn2)o1 | -39.5%
Cc1ccc(CCNC(=O)C23C[C@H]4C[C@@H](C2)CC(n2nnc(C)n2)(C4)C3)cc1 | -6.79%
COc1ccc(S(=O)(=O)N(CC(=O)Nc2ccc(S(=O)(=O)N3CCOCC3)cc2)Cc2ccc(F)cc2)cc1 | 9.02%

Compound | hERG current change (%, negative = inhibition) at 10uM
COc1ccc(OCCCC(=O)OC(C)C(=O)Nc2cccc(C(C)=O)c2)cc1 (stereo not drawn) | -14.3%
CC(C)Oc1ccc(CNC(=O)Oc2ccccc2)cc1 | 8.19%
O=C(COc1cc2oc(=O)c3c(c2cc1Cl)CCC3)NCc1ccccn1 | 7.07%
N#Cc1cccc(NC(=O)COC(=O)CCc2ccc(S(=O)(=O)N3CCOCC3)cc2)c1 | -60.1%
CNC(=S)NNc1nncc2ccccc12 | 10.7%
COCCn1cnc2c1c(=O)n(CC(=O)OCC#N)c(=O)n2Cc1ccccc1 | 5.42%
CCCNC(=O)COC(=O)c1ccccc1OCc1ccc(Cl)cc1 | -0.354%
Cc1ccc(NS(=O)(=O)c2cccc(C(=O)N3CCN(C(=O)c4ccco4)CC3)c2)cc1 | -36.8%
O=C(C1=NN(c2ccccc2)C2C(=O)N(c3ccccc3)C(=O)C12)c1ccccc1 (stereo not drawn) | -7.76%
CCOc1ccc(N(C(=O)c2snc(C(N)=O)c2N)C(C)C(=O)NC2CCCCC2)cc1 (stereo not drawn) | -26%
COc1ccc(OC)c(N2C(=O)C(Cl)=C(N3CCOCC3)C2=O)c1 | -1.47%
Cc1nnc(NC(=O)CCC(=O)N2CCC(C)CC2)s1 | 15.8%
COc1ccc2nc(SCC(=O)NCCc3ccccc3)[nH]c2c1 | -21.6%
COc1cccc(-n2nc(-c3ccnn3-c3ccc(C)cc3)c(=O)n(C)c2=O)c1 | -2.93%
CCSc1nnc(NC(=O)[C@@H](NC(=O)c2ccc(C(C)(C)C)cc2)C(C)C)s1 | 2.01%
O=C(CN1CCOc2ccccc21)NCc1ccccc1 | 0.805%
O=C1CC(c2ccccc2)Sc2nc3ccccc3n21 (stereo not drawn) | 8.11%
COc1ccc(C(C)=O)cc1COC(=O)CCNS(=O)(=O)c1ccc(C)c(C)c1 | -38.3%
COc1cccc(CNC(=O)CCNS(=O)(=O)c2ccc3c(c2)CC(C)N3C(C)=O)c1 (stereo not drawn) | 13.8%
Cc1cccc(CSc2nc3c(c(-c4cccs4)c2C#N)CN(C)CC3)c1 | -13.1%
Oc1ccc(C2C[C@H]3CC[C@@H]2C3)cc1O (stereo partly drawn) | 4.19%
